Data published in the supplement of paper PMC4604168 (melanoma cell lines).
The list shows a part of the results. Many values rest on one well or one pass, so single values are uncertain.

Tests used:
Experiment in all cases: cell count relative to DMSO control; melanoma cells; higher = more viable cells
Conditions in all cases: library dose: standard library concentration; 72 h
G361 = test system: G361
IPC-298 = test system: IPC-298
IST-MEL1 = test system: IST-MEL1
LB2518-MEL = test system: LB2518-MEL
LOXIMVI = test system: LOXIMVI
MEL-HO = test system: MEL-HO
MZ2-MEL = test system: MZ2-MEL
MeWo = test system: MeWo
RPMI7951 = test system: RPMI7951
RVH-421 = test system: RVH-421
SkMel28 = test system: SkMel28
SkMel2 = test system: SkMel2
SkMel30 = test system: SkMel30
SkMel5 = test system: SkMel5
UACC257 = test system: UACC257
UACC62 = test system: UACC62
WM115 = test system: WM115
WM1716 = test system: WM1716
WM3526 = test system: WM3526
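Note: cells treated in 1,536-well plates, then fixed and DAPI-stained, with nuclei counted from automated high-throughput microscope images.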

Row | Compound | cell count (G361) [%] | cell count (IPC-298) [%] | cell count (IST-MEL1) [%] | cell count (LB2518-MEL) [%] | cell count (LOXIMVI) [%] | cell count (MEL-HO) [%] | cell count (MZ2-MEL) [%] | cell count (MeWo) [%] | cell count (RPMI7951) [%] | cell count (RVH-421) [%] | cell count (SkMel28) [%] | cell count (SkMel2) [%] | cell count (SkMel30) [%] | cell count (SkMel5) [%] | cell count (UACC257) [%] | cell count (UACC62) [%] | cell count (WM115) [%] | cell count (WM1716) [%] | cell count (WM3526) [%]
1 | Nc1nc(F)nc2c1ncn2[C@@H]1O[C@H](CO)[C@@H](O)[C@@H]1O [fludarabine] + CCN(CC)CCCCNc1ncc2cc(-c3cc(OC)cc(OC)c3)c(NC(=O)NC(C)(C)C)nc2n1 [PD173074] (first compound 1 µM, partner dose 0.5 µM) | 76.2 | 69.8 | 71.2 | 93.1 | 89.8 | 73.3 | 98.4 | 72.1 | 59.1 | 79.9 | 2.29 | 1.08 | 18.1 | 17.1 | 29.4 | 97.5 | 91.2 | 90.8 | 19
2 | Nc1ccn([C@@H]2O[C@H](CO)[C@@H](O)C2(F)F)c(=O)n1 [gemcitabine] + COc1cc2ncnc(Nc3ccc(Oc4ccccc4)cc3)c2cc1OC [SrcI1] (first compound 0.002 µM, partner dose 10 µM) | 55.1 | 47.2 | 43.5 | 94.9 | 60.6 | 62 | 73.7 | 55.3 | 46 | 90.1 | 56.3 | 94.6 | 96.5 | 59.8 | 87.8 | 72.4 | 58.4 | 78 | 58.3
3 | Nc1nc(F)nc2c1ncn2[C@@H]1O[C@H](CO)[C@@H](O)[C@@H]1O [fludarabine] + O=C(O)C(=O)Nc1sc2c(c1C(=O)O)CCNC2 [TCS401] (first compound 1 µM, partner dose 8.33333 µM) | 102 | 84.5 | 92.2 | 93.1 | 51.8 | 81.7 | 123 | 91.3 | 75.3 | 100 | 5.32 | 2.37 | 20.1 | 44.3 | 44.6 | 111 | 90.7 | 107 | 25.7
4 | Nc1nc(F)nc2c1ncn2[C@@H]1O[C@H](CO)[C@@H](O)[C@@H]1O [fludarabine] + COc1cc(N2CCC(N3CCN(C)CC3)CC2)ccc1Nc1ncc(Cl)c(Nc2ccccc2S(=O)(=O)C(C)C)n1 [NVP-TAE684] (first compound 1 µM, partner dose 0.4 µM) | 76.3 | 70.9 | 75.2 | 78.7 | 123 | 70.9 | 95.2 | 74.9 | 52.2 | 110 | 2.97 | 0.255 | 12.7 | 24.4 | 25.9 | 79.3 | 82.3 | 91.4 | 13.9
5 | CC(=O)O[C@@]12CO[C@@H]1C[C@H](O)[C@@]1(C)C(=O)[C@H](O)C3=C(C)[C@@H](OC(=O)[C@H](O)[C@@H](NC(=O)OC(C)(C)C)c4ccccc4)C[C@@](O)([C@@H](OC(=O)c4ccccc4)[C@H]21)C3(C)C [Docetaxel] + Oc1cc(-c2nc(-c3ccccc3)[nH]c2-c2ccncc2)ccc1Cl [L779450] (first compound 0.0005 µM, partner dose 1 µM) | 11.7 | 36.8 | 43.1 | 45.1 | 56.1 | 38.6 | 41.2 | 24.7 | 16 | 55.6 | 16.1 | 12.2 | 43.2 | 46.4 | 69.7 | 41.3 | 37 | 30.8 | 29.9
6 | CO[C@H]1C[C@@H]2CC[C@@H](C)[C@@](O)(O2)C(=O)C(=O)N2CCCC[C@H]2C(=O)O[C@H]([C@H](C)C[C@@H]2CC[C@@H](OCCO)[C@H](OC)C2)CC(=O)[C@H](C)/C=C(\C)[C@@H](O)[C@@H](OC)C(=O)[C@H](C)C[C@H](C)/C=C/C=C/C=C/1C [everolimus] + CCN(CC)CCCCNc1ncc2cc(-c3cc(OC)cc(OC)c3)c(NC(=O)NC(C)(C)C)nc2n1 [PD173074] (first compound 0.1 µM, partner dose 0.5 µM) | 72.4 | 67.5 | 87.2 | 81.4 | 70.1 | 73.6 | 73.8 | 52.9 | 72 | 92.6 | 53.6 | 69.8 | 71.5 | 70.4 | 95.2 | 70.5 | 64.5 | 81 | 82.8
7 | Nc1ccn([C@@H]2O[C@H](CO)[C@@H](O)C2(F)F)c(=O)n1 [gemcitabine] + CCc1ccc(CCOc2ccc(CC3SC(=O)NC3=O)cc2)nc1 [pioglitazone] (first compound 0.002 µM, partner dose 10 µM) | 51.2 | 49.5 | 45.4 | 72.4 | 155 | 56 | 83 | 43.5 | 83.6 | 56.6 | 67 | 90.2 | 96.8 | 72 | 91 | 93.4 | 77.8 | 62 | 102
8 | Nc1ncn([C@H]2C[C@H](O)[C@@H](CO)O2)c(=O)n1 [decitabine] + Cc1cc([N+](=O)[O-])ccc1NS(=O)(=O)c1cc(Cl)ccc1Cl [FH535] (first compound 0.5 µM, partner dose 5 µM) | 39.4 | 43.2 | 47.9 | 71.7 | 85.7 | 46.1 | 55.4 | 63.3 | 77.9 | 44.4 | 56.6 | 76.8 | 92.9 | 64.2 | 62.8 | 69.6 | 68.3 | 70.1 | 66.2
9 | Nc1nc(F)nc2c1ncn2[C@@H]1O[C@H](CO)[C@@H](O)[C@@H]1O [fludarabine] + N#Cc1c(O)c2c(-c3ccc(-c4ccccc4O)cc3)csc2[nH]c1=O [A769662] (first compound 1 µM, partner dose 10 µM) | 90.8 | 79.9 | 73.6 | 104 | 106 | 69.6 | 105 | 86.2 | 75 | 94 | 3.77 | 2.49 | 19.8 | 24.2 | 18.4 | 80.8 | 90.5 | 95.4 | 24.6
10 | Nc1nc(F)nc2c1ncn2[C@@H]1O[C@H](CO)[C@@H](O)[C@@H]1O [fludarabine] + CCCCCCCCCCCC1=C(O)C(=O)C=C(O)C1=O [Embelin] (first compound 1 µM, partner dose 6 µM) | 66.4 | 53.1 | 56.2 | 75.5 | 91.6 | 65.2 | 84.6 | 93.2 | 48.3 | 45.7 | 3.02 | 1.35 | 17.4 | 26.1 | 32.8 | 67.9 | 87.6 | 71.5 | 24.1
11 | CO[C@H]1C[C@@H]2CC[C@@H](C)[C@@](O)(O2)C(=O)C(=O)N2CCCC[C@H]2C(=O)O[C@H]([C@H](C)C[C@@H]2CC[C@@H](OCCO)[C@H](OC)C2)CC(=O)[C@H](C)/C=C(\C)[C@@H](O)[C@@H](OC)C(=O)[C@H](C)C[C@H](C)/C=C/C=C/C=C/1C [everolimus] + O=c1cc(-c2cccc3c2Sc2ccccc2S3)oc(N2CCOCC2)c1 [KU55933] (first compound 0.1 µM, partner dose 5 µM) | 60.1 | 81.6 | 83.1 | 72.4 | 99.9 | 77.1 | 79.9 | 55.2 | 76 | 76.5 | 55.4 | 57.4 | 75.2 | 68.4 | 97.5 | 91.9 | 60.9 | 68.5 | 65.3
12 | Nc1nc(F)nc2c1ncn2[C@@H]1O[C@H](CO)[C@@H](O)[C@@H]1O [fludarabine] + c1cc(-c2cnn3cc(-c4ccc(OCCN5CCCCC5)cc4)cnc23)ccn1 [Dorsomorphin] (first compound 1 µM, partner dose 2 µM) | 51.5 | 80 | 72 | 63 | 95.6 | 78.5 | 75.8 | 49.4 | 60.3 | 112 | 2.06 | 2.2 | 21.7 | 19.2 | 34.4 | 64.4 | 61.1 | 69.1 | 29.9
13 | CC(=O)O[C@@]12CO[C@@H]1C[C@H](O)[C@@]1(C)C(=O)[C@H](O)C3=C(C)[C@@H](OC(=O)[C@H](O)[C@@H](NC(=O)OC(C)(C)C)c4ccccc4)C[C@@](O)([C@@H](OC(=O)c4ccccc4)[C@H]21)C3(C)C [Docetaxel] + COc1cc(N2CCC(N3CCN(C)CC3)CC2)ccc1Nc1ncc(Cl)c(Nc2ccccc2S(=O)(=O)C(C)C)n1 [NVP-TAE684] (first compound 0.0005 µM, partner dose 0.4 µM) | 16.4 | 40.2 | 41.3 | 29.8 | 57.7 | 48.5 | 40.1 | 20.6 | 32.4 | 47.3 | 19.8 | 16.8 | 51.5 | 28.3 | 52.8 | 62 | 36.1 | 34 | 39.4
14 | CC(=O)c1c(C)c2cnc(Nc3ccc(N4CCNCC4)cn3)nc2n(C2CCCC2)c1=O [palbociclib] + COc1cc2ncnc(Nc3ccc(Oc4ccccc4)cc3)c2cc1OC [SrcI1] (first compound 0.2 µM, partner dose 10 µM) | 35.7 | 58.4 | 63.9 | 52.6 | 109 | 85.8 | 67.5 | 43.1 | 53.5 | 106 | 52.6 | 54.8 | 76.6 | 50.4 | 69.9 | 62.8 | 48.1 | 50.2 | 58.1
15 | Nc1nc(F)nc2c1ncn2[C@@H]1O[C@H](CO)[C@@H](O)[C@@H]1O [fludarabine] + COC(=O)c1sccc1S(=O)(=O)Nc1ccc(Nc2ccccc2)cc1OC [GSK0660] (first compound 1 µM, partner dose 5 µM) | 84.1 | 65.2 | 74.6 | 76.1 | 112 | 78.3 | 90.5 | 98.6 | 66.3 | 89.5 | 1.28 | 2.11 | 16.9 | 19.5 | 34.5 | 95.9 | 85.4 | 92.5 | 26.5
16 | CC(=O)c1c(C)c2cnc(Nc3ccc(N4CCNCC4)cn3)nc2n(C2CCCC2)c1=O [palbociclib] + O=C1NC(=O)/C(=C/c2ccc(-c3ccc(F)cc3O)o2)S1 [AS252424] (first compound 0.2 µM, partner dose 5 µM) | 58.6 | 84.8 | 86.5 | 76.4 | 86.6 | 74.9 | 84.6 | 54.4 | 85.8 | 80.6 | 57.2 | 58.2 | 60.1 | 56.1 | 75.1 | 62.8 | 49 | 36.5 | 47.8
17 | Nc1ccn([C@@H]2O[C@H](CO)[C@@H](O)C2(F)F)c(=O)n1 [gemcitabine] + CCN(CC)CCCCNc1ncc2cc(-c3cc(OC)cc(OC)c3)c(NC(=O)NC(C)(C)C)nc2n1 [PD173074] (first compound 0.002 µM, partner dose 0.5 µM) | 51.4 | 56.5 | 45.7 | 72.1 | 48.9 | 65.8 | 87.3 | 45.8 | 81.4 | 65.4 | 99.5 | 104 | 107 | 74.4 | 113 | 65.9 | 74.9 | 70.7 | 96.2
18 | CC(=O)c1c(C)c2cnc(Nc3ccc(N4CCNCC4)cn3)nc2n(C2CCCC2)c1=O [palbociclib] + O=C(Nc1ccccc1)c1cc([N+](=O)[O-])ccc1Cl [GW9662] (first compound 0.2 µM, partner dose 10 µM) | 52.5 | 74.1 | 72 | 57.3 | 65.7 | 68.5 | 60.1 | 48.6 | 72.7 | 55.3 | 37.5 | 66.4 | 87.6 | 46.1 | 71.5 | 52.7 | 44 | 35.9 | 51.8
